Patent US20250281631A1, “ANTIBODY-DRUG CONJUGATES AND PREPARATION METHODS AND USE THEREOF” (SICHUAN KELUN-BIOTECH BIOPHARMACEUTICAL CO., LTD, priority 2022, published 2025)

Tests used:
MDA-MB-453 cells [1] = assay: Cell affinity of anti-human HER3 antibodies and ADCs by flow cytometry; type: binding; conditions: MDA-MB-453 cells, flow cytometry, Table 32
Excerpt: (§1) 1. Detection of Cell Affinity of Anti-Human HER3 Antibodies and their Drug Conjugates
(§2) The affinity of anti-human HER3 ADC to MDA-MB-453, NCI-H358, KPL-4, and A431 cells was detected by flow cytometry (Beckman, model Cytoflex).
(§3) Adherent MDA-MB-453, NCI-H358, KPL-4, A431 cells were digested with Tryple (manufacturer: Gibco) solution, counted, and an appropriate amount of the cells were taken, washed twice with 1×PBS, resuspended in 1% BSA in PBS solution, and then transferred to a 96-well sharp-bottom plate, 50 μl per well; candidate antibodies and drug conjugates thereof were diluted with 1% BSA in PBS solution by 3-fold or 2.5-fold serial dilution starting from 5 μg/mL, and then 50 μl of the diluted antibody or antibody-drug conjugate was added to the sharp-bottom plate containing the cells, and incubation was carried out at 4° C. for 40 minutes; the cells were washed twice with PBS, then added with 50 μl of diluted secondary antibody to each well, mixed, and incubated at 4° C. for 30 minutes; the cells were washed with PBS twice, then resuspended in 400 μl of PBS and detected by flow cytometry. Data processing: the average fluorescence signal values were exported, and then input into GraphPad Prism 6 software to calculate EC50. The results were shown in Table 32 and FIGS. 1A, 1B, 1C, and 1D. […] Moreover, when the naked antibody was formed into ADC through conjugation, the affinity to cells was less affected, and the affinity of 22B6 formed into ADC by conjugation was still the highest.

KPL-4 cells = assay: as above; type: binding; conditions: Table 32
Excerpt: as §1, §2, §3

NCI-H358 cells = assay: as above; type: binding; conditions: Table 32
Excerpt: as §1, §2, §3

A431 cells = assay: as above; type: binding; conditions: Table 32
Excerpt: as §1, §2, §3

HEK293T negative cells = assay: Bystander effect test, negative cells alone (flow cytometry, PI); type: cell-based; conditions: ADC 20 nM, 4 nM, 0.8 nM dilutions, 4 days
Experimental: 3. Bystander Effect of Anti-Human HER3 Antibody-Drug Conjugates
HEK293T and HEK293T-h HER3 cells were digested with 0.25% Trypsin-EDTA (manufacturer: Gibco), counted, and an appropriate amount of the cells were taken, washed twice with 1×PBS, the cell density was adjusted to 1×10^6 cells/ml, and then Cell Trace Violet was added to reach a final concentration of 5 μM for labeling, mixed well and incubated in an incubator for 20 min, then the cells were washed with growth medium and counted, plated on 24-well plates (500 μl/well) according to the following ratios: HEK293T-labeled: HEK293T=4000:12000 cells/well, HEK293T-labeled: HEK293T-h HER3=4000:12000 cells/well, HEK293T-h HER3-labeled: HEK293T-h HER3=4000:12000 cells/well, and cultured overnight at 37° C., 5% CO2;
On the next day, ADC was diluted with growth medium to reach concentrations of 20 nM, 4 nM, and 0.8 nM, then 500 μl of the diluted ADC was taken and added to the corresponding 24-well plates containing cells, and the plates were placed and cultured in an incubator at 37° C., 5% CO2 for 4 days;
HEK293T and HEK293T-h HER3 cells were digested with 0.25% Trypsin-EDTA, added to a growth medium containing PI with a final concentration of 3 μM, mixed well, incubated at room temperature for 15 min, and then detected by flow cytometry (Thermo, model: Attune NxT).

MDA-MB-453 cells [2] = assay: Endocytosis effects of anti-human HER3 antibody and ADC (pHrodo, flow cytometry); type: cell-based; conditions: MDA-MB-453 cells, pHrodo, 24 hours
Experimental: 9. Detection of Endocytosis Effects of Anti-Human HER3 Antibody Conjugates
The endocytosis effects of anti-human HER3 ADC in MDA-MB-453 cells were detected by flow cytometry (Beckman, model Cytoflex).
Adherent cells were digested with Trypsin-EDTA (0.25% Shanghai Basal Media Technologies) solution, counted, and adjusted the cell concentration to 1×10^5/ml with complete culture medium, then 100 μl of the cell suspension was added to the 96-well plate (the cell number is 1× 10^4/well), the 96-well plate was incubated in constant temperature CO2 incubator at 37° C. for 24 hours. Then took out the 96-well plate, discarded the medium, and added 50 μl of fresh complete culture medium to each well, the bi-specific antibody and control antibody were diluted with complete culture medium by serial dilution, the final concentrations were 0.55, 1.64, 4.94, 14.81, 44.44, 133.33, 400, 1200 ng/ml, 8 concentrations in total; PHrodo solution (Thermo) was diluted with complete culture medium to 12 μg/ml (the final concentration of PHrodo is 3 μg/ml); the serial diluted antibody candidates and diluted PHrodo solution were 1:1 mixed (30 μl 30 μl), incubated at room temperature in dark for 30 minutes; add 50 μl antibody candidate and PHrodo solution mixture to 96-well bplace, cultured at 37° C., 5% CO2 for 24 hours; took out the 96-well plate, discarded medium, washed once with sterile PBS, then cells were digested with 100 μl/well Trypsin-EDTA (0.25%), neutralized with 100 μl complete culture medium; then cells were separated by piping up and down and detected by flow cytometry. Data processing: the average fluorescence signal values were exported, and then input into GraphPad Prism 6 software to calculate EC50.

MDA-MB-453 cells [3] = assay: Cell affinity of anti-human HER3 antibody and its drug conjugates by flow cytometry (second test, Table 37); type: binding
Experimental: 8. Detection of Cell Affinity of Anti-Human HER3 Antibody and its Drug Conjugates
The affinity of anti-human HER3 ADC to MDA-MB-453 cells was detected by flow cytometry (Beckman, model Cytoflex).
Adherent MDA-MB-453 cells were digested with Tryple (manufacturer: Gibco) solution, counted, and an appropriate amount of the cells were taken, washed twice with 1×PBS, resuspended in 1% BSA solution, and then transferred to a 96-well sharp-bottom plate, 50 μl per well; candidate antibodies and drug conjugates thereof were diluted with 1% BSA by 3-fold serial dilution starting from 15 μg/mL, and then 50 μl of the diluted antibody or antibody-drug conjugate was added to the sharp-bottom plate containing the cells, and incubation was carried out at 4° C. for 40 minutes; the cells were washed twice with PBS, then added with 50 μl of diluted secondary antibody to each well, mixed, and incubated at 4° C. for 30 minutes; the cells were washed with PBS twice, then resuspended in 200 μl of PBS and detected by flow cytometry. Data processing: the average fluorescence signal values were exported, and then input into GraphPad Prism 6 software to calculate EC50.

B1: 22B6-A-07-A-1: ADC of antibody 22B6D2-hIgG1 conjugated to drug-linker A-07-A, DAR 7.99 (conjugate)
heavy: EVHLVESGGGVVQPGRSLRLSCATSGFTFRSYGMHWVRQAPGKGLEWVAVIWYDGSNKYYADSVKGRFTISRDISKNTLYLQMNSLTAEDTAVYYCARYYYDSNGYYDAFDIWGQGTMVTVSSASTKGPSVFPLAPSSKSTSGGTAALGCLVKDYFPEPVTVSWNSGALTSGVHTFPAVLQSSGLYSLSSVVTVPSSSLGTQTYICNVNHKPSNTKVDKRV[in this place human IgG1 Fc]
light: DIQLTQSPSFLSASVGDRVTITCRASQGISNYLAWYQQKPGKAPKLLIFAASTLQSGVPSRFSGSGSGAEFTLTISSLEPEDFATYYCQQLNSYPITFGQGTRLEIKRTVAAPSVFIFPPSDEQLKSGTASVVCLLNNFYPREAKVQWKVDNALQSGNSQESVTEQDSKDSTYSLSSTLTLSKADYEKHKVYACEVTHQGLSSPVTKSFNRGEC
EC50 cell affinity (MDA-MB-453 cells [1]): 0.05598 µg/mL | EC50 cell affinity (KPL-4 cells): 0.03251 µg/mL | EC50 cell affinity (NCI-H358 cells): 0.03291 µg/mL | EC50 cell affinity (A431 cells): 0.02836 µg/mL | killing of HEK293T negative cells (HEK293T negative cells): basically did not kill HEK293T negative cells | EC50 endocytosis effects (MDA-MB-453 cells [2]): 0.01222 µg/mL | EC50 cell affinity (MDA-MB-453 cells [3]): 0.1469 µg/mL
